Some of the results follow. At the low end of the ranking the order means little.

In the experiment the test system is T1, GST-NbGlk1(82-244).
T1 sequence: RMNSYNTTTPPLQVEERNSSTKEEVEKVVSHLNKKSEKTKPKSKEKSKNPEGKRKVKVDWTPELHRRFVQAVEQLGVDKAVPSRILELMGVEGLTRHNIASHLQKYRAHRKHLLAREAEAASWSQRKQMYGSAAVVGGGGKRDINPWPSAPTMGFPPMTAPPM
The experiment is described as follows: protein-binding microarray.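 Note: rank-based score ranging −0.5 to +0.5 with E above 0.45 taken as significant binding.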 To be noted: NbGlk1 is a Golden2-like transcription factor of Nicotiana benthamiana; high values mean tight binding; most listed sequences are background and not binding sites; double strand, one strand shown.
With ACCGCAGA, the binding signal is 0.0344 E-score.

As for AGAGCAAA, the binding signal was -0.072 E-score.

ACTGACCA displayed a binding signal of -0.0421 E-score.

For ATATCGGG, the binding signal is 0.343 E-score.

Consider AGAAAGTG, for which the binding signal is 0.0661 E-score.

In turn, CACCAGAA yielded a binding signal of -0.13 E-score.

With AGCTGTAG, the binding signal is -0.0496 E-score.

In the case of ACATCTCG, the binding signal was -0.0226 E-score.

In turn, ACCACTAA had a binding signal of 0.0835 E-score.

Regarding ATGGCACC, the binding signal was -0.203 E-score.

Turning to AAAAGCTT, the binding signal was determined as 0.0448 E-score.

Regarding CACTTGCA, the binding signal is -0.185 E-score.

ACTCAGTA came in with a binding signal of 0.0652 E-score.

As to ACATCGTC, the binding signal was -0.0707 E-score.

ACTAGTAT showed a binding signal of 0.131 E-score.

AACACTAA: the binding signal was 0.137 E-score.

In turn, ATGTCAAG showed a binding signal of -0.0327 E-score.

ACGCCCTG: the binding signal was -0.267 E-score.

On to AATTCACT, for which the binding signal was determined as 0.00975 E-score.

AGCTTGTA: the binding signal is -0.0543 E-score.

AGCCCGAA: the binding signal was -0.149 E-score.

In turn, ACCTTTAC displayed a binding signal of 0.0219 E-score.

Consider ATAATTTA, for which the binding signal was determined as 0.173 E-score.

ACAGTTTC displayed a binding signal of -0.0737 E-score.

As for CAGACACG, the binding signal was -0.148 E-score.

In turn, AGTCTACG displayed a binding signal of -0.216 E-score.

Sequence AAGCGAAT gave a binding signal of 0.291 E-score.

With ATCCTTGA, the binding signal came to 0.218 E-score.

AGACCCCA gave a binding signal of -0.264 E-score.

Sequence ATCTCGCG gave a binding signal of 0.333 E-score.

AGATCTCC had a binding signal of 0.441 E-score.

Turning to AACCGCAA, the binding signal was determined as 0.0585 E-score.

As for ACAGGAGT, the binding signal is -0.124 E-score.

AAGCAGGT gave a binding signal of -0.03 E-score.

In turn, AAGCCTTA came in with a binding signal of -0.11 E-score.

The sequence ACACCAGC returned a binding signal of -0.113 E-score.

With ACTAGAGC, the binding signal was -0.15 E-score.

Regarding ATCGGTGA, the binding signal stood at 0.229 E-score.

ATTCAATC returned a binding signal of 0.0912 E-score.

The sequence ACGGCTGG returned a binding signal of -0.0982 E-score.

The sequence ACCTGGGC gave a binding signal of -0.144 E-score.

In the case of ATATCGAA, the binding signal worked out at 0.272 E-score.

For the sequence ACGTCGTA, the binding signal amounted to 0.0632 E-score.

In the case of ATCGGCGG, the binding signal stood at 0.0203 E-score.

In the case of ATTGAGCC, the binding signal was -0.284 E-score.

ATTATGTA: the binding signal turned out to be 0.215 E-score.

In turn, AATGCCCC registered a binding signal of -0.183 E-score.

On to ACTTTCCG, for which the binding signal is -0.0651 E-score.

Sequence CACCTACC yielded a binding signal of -0.152 E-score.

CACACGGA gave a binding signal of 0.0177 E-score.

ACTCGCAT displayed a binding signal of -0.0429 E-score.

Sequence CACGGCGG showed a binding signal of -0.11 E-score.

Turning to ACTCGGCC, the binding signal is -0.128 E-score.

Consider ATCCATGG, for which the binding signal is 0.191 E-score.

AGGCAAAG: the binding signal was -0.148 E-score.

The sequence AATAACAT showed a binding signal of 0.00177 E-score.

For AATATCGG, the binding signal came out at 0.371 E-score.

For the sequence AAACAATA, the binding signal is 0.15 E-score.

ACCACCGC returned a binding signal of -0.139 E-score.

ATAAACGG came in with a binding signal of -0.0262 E-score.

Consider AACTCCCC, for which the binding signal is -0.28 E-score.

As for ATGATCTC, the binding signal was 0.237 E-score.

In turn, AATGCGCA came in with a binding signal of -0.0252 E-score.

Regarding AAATTAGC, the binding signal stood at 0.0276 E-score.

For the sequence CAAAGCGC, the binding signal is -0.198 E-score.

With AAGGGACT, the binding signal is -0.254 E-score.

In the case of CAACTATA, the binding signal was found to be 0.0311 E-score.

In the case of ATGGTCCA, the binding signal turned out to be 0.00911 E-score.

ACGACAGA: the binding signal was found to be 0.0397 E-score.

For ACTTGCGG, the binding signal is -0.0533 E-score.

With ACCAGTCT, the binding signal is -0.158 E-score.

As to ACGTAGGC, the binding signal was -0.189 E-score.

Regarding AATCTGAG, the binding signal was 0.415 E-score.

On to AGAGCAAT, for which the binding signal came out at 0.173 E-score.

On to AACCCCTT, for which the binding signal is -0.136 E-score.

In turn, ATAGTAAA came in with a binding signal of 0.139 E-score.

In turn, ATTCCGAC had a binding signal of 0.143 E-score.

CACTCTAG showed a binding signal of 0.00849 E-score.

As for ACTTCCCG, the binding signal is -0.196 E-score.

ATTCTATG: the binding signal amounted to 0.187 E-score.

AGGACTAA registered a binding signal of -0.234 E-score.

On to ACTCTAGA, for which the binding signal stood at 0.0375 E-score.

In the case of ACCTCATC, the binding signal is -0.0591 E-score.

Sequence AGATGCCG returned a binding signal of 0.044 E-score.

For ATCTAAAG, the binding signal is 0.176 E-score.

Sequence ATATCTGG came in with a binding signal of 0.401 E-score.

ATAAAGGA: the binding signal turned out to be 0.124 E-score.

AGCCTAAC gave a binding signal of -0.217 E-score.

As to ACGGTTTA, the binding signal was -0.0063 E-score.

As for AAGCACAG, the binding signal was -0.146 E-score.

ACCAATTG came in with a binding signal of -0.0326 E-score.

ACGGGCGG gave a binding signal of -0.0389 E-score.

Turning to AAAACGGT, the binding signal is -0.121 E-score.

For CAAGAACG, the binding signal is -0.0572 E-score.

Sequence ACCGAAAC came in with a binding signal of -0.12 E-score.

ACCAGCCA: the binding signal is -0.11 E-score.

Sequence AGCGCTGG registered a binding signal of -0.124 E-score.

Take ATGCAAAT: the binding signal is 0.299 E-score.

Sequence ATCGTACA gave a binding signal of 0.149 E-score.

Consider ACTAAACC, for which the binding signal is -0.111 E-score.

The sequence AAGGGATC showed a binding signal of 0.139 E-score.

Sequence AAGCGGGT returned a binding signal of -0.0466 E-score.

As for AAGAGCGC, the binding signal was -0.047 E-score.

ATCTGATC displayed a binding signal of 0.329 E-score.

Take AGTCCAAG: the binding signal is -0.024 E-score.

As for AAGGCCGG, the binding signal was -0.17 E-score.

ATAATGTG showed a binding signal of 0.0796 E-score.

The sequence AGGAAAAC registered a binding signal of -0.0961 E-score.

As to ACAGGTTA, the binding signal is -0.0964 E-score.
